Laboratory results: article PMC12136788
Some of the results follow.

B1: chr7:56126341:56126342:+_ENSG00000146731_ENST00000540286|hu_mus|hu_hu_hu_mus_True|68_68 (ssRNA)
RNA: GGGAGUUCUACAGUCCGACGAUCCAUGUUUCUCCUCUUGGCUCUGCGCAGAGCUACGAUCCCUUCUUUUGAAAGAGCAUCUAAGGAAAAGGGGUCAAUCCCCUUUUGAUUAAUAACGACAAAUCCUUUAUCUGAGUCACCACACAACAGAGGAUUGAGCAUCA
B2: chr8:79514634:79514635:+_ENSG00000171033_ENST00000352966|hu_hu|FALSE|FALSE (ssRNA)
RNA: GGGAGUUCUACAGUCCGACGAUCACUGUGUUUUAAAAAAGGGUGUUCUAUCCUGUGUACACCACCACAGUAUGGAAAACUAAAAUGAAAAGACAGCCCUUUUAAAAAUGAGUGGUAUAAAAAUUCACAGUAAUGUACAUCAUUCAACAGAGGAUUGAGCAUCA
B3: chr2:217001844:217001845:+_ENSG00000079246_ENST00000392132|hu_hu|hu_hu_hu_mus_False|28_28 (ssRNA)
RNA: GGGAGUUCUACAGUCCGACGAUCACCAACUUGAGGAUUAGAUCUUUUGUCAUAAGCAUAUCGGACGAUGGCGACCAUGUUUAACUCAUCCAAAGCAUGAACGAGAGAGGAAAGUGCAACAGCUGCCGCCUCAUCAUCCUUUGCCAACAGAGGAUUGAGCAUCA
B4: chr9:14812383:14812384:-_ENSMUSG00000031934_ENSMUST00000164273|mus_mus|mus_mus_mus_hu_True|48_88 (ssRNA)
RNA: GGGAGUUCUACAGUCCGACGAUCAUAGCCCAGGUAGAUACACGCUAACAGUAUAACGAUGAGUGUCAGCAGGCGGCAGCUAAUGUAUUUCAUGAUUAAAUUAUUAGAAUUUUUCUUUGUCUUCAAGUACUGCUCCACAAUUGGCAACAGAGGAUUGAGCAUCA
B5: chr15:93570553:93570554:+_ENSG00000173575_ENST00000394196|hu_hu|motif|central (ssRNA)
RNA: GGGAGUUCUACAGUCCGACGAUCUCUAAGGCCAUAGUGUAUCAUGUCAACCCUUGUUCACGUGCAGGUUUUAGGUGAUGCGGACUCCCUCUUUCUCAACCUGUUAUUUCUACCAACAAUGAAAUCUUUCAAAGCCAGACUCCACAACAGAGGAUUGAGCAUCA
B6: chr2:198351390:198351391:-_ENSG00000144381_ENST00000345042|hu_hu|hu_hu_hu_mus_False|8_58 (ssRNA)
RNA: GGGAGUUCUACAGUCCGACGAUCUCAUUCCCACCCUCCACAGAAAGGCUGCUUCUGAACUCUCAUGUGGUGACACAGCACUAAAAUCCUGAUGCUCACAGAACAGUAGAGAUGCCUCAGUGAUUUAUUAAGUUGAAAGGACACCAACAGAGGAUUGAGCAUCA
B7: chr14:55655841:55655842:-_ENSG00000126787_ENST00000247191|hu_hu|motif|central (ssRNA)
RNA: GGGAGUUCUACAGUCCGACGAUCUUCCUUAUGUCUAUUUUCUUUCUGAGACAGUGAUUUCCUAUGAGCAAUUUUAGUUCGGAUCAUUUCAGUACUUAUAUCCUUCCUGUGUCGACUGGCAAAAUGUGAUGAAGACAUCCUGAGCAACAGAGGAUUGAGCAUCA
B8: chr8:28149726:28149727:+_ENSMUSG00000031483_ENSMUST00000033873|mus_mus|motif|central (ssRNA)
RNA: GGGAGUUCUACAGUCCGACGAUCCUGGAGCUAUUAACCCAAGGUAAUUUAUCUAGUGGUAUCAUUUAUGGAAUAAUUACGGUAACAAGAAUCAUUUCUCAGUUAUAAAGGCUCAUUAAUGCCCUUGGGGCACACUGAAAAAAUCAACAGAGGAUUGAGCAUCA
B9: 58339928_58340048_839_CDS_ENSMUSG00000079104_ENSMUST00000139049|mouse|control|control (ssRNA)
RNA: GGGAGUUCUACAGUCCGACGAUCCUUCACAUCUCCUACUAGUACCAUGCGGUCUACUUCAUUGGCCUUCUUCCGUUCCUUGUGAAUCAAAGCAAAAUCCACAUUCAACCGGUCUGCAAUGGAGGUCACUCUCUUGGCUCCACCCAACAGAGGAUUGAGCAUCA
B10: chr11:61557309:61557310:-_ENSG00000134825_ENST00000537328|hu_hu|FALSE|FALSE (ssRNA)
RNA: GGGAGUUCUACAGUCCGACGAUCGAUGCCAACCCAGAGCAGCAGGAAGAGGACUCCAAAGCCCAUGAAGAGUGAGGCCACUAAGGAGAUGAGGAGCUCUUUAUAGAUAUCACGAGUGUACUUGGUAGAGGUGACCUCGUAAACCAACAGAGGAUUGAGCAUCA
B11: chr5:31194218:31194219:+_ENSMUSG00000029165_ENSMUST00000031057|mus_mus|FALSE|FALSE (ssRNA)
RNA: GGGAGUUCUACAGUCCGACGAUCUAGAUCUACACGAAGUCCAUCCAGAGAAUAGCAGAGAAGCUCUCGGUGGUAAUAAAUACUAUCCAGAGGACUGCUAUGGGUAGAGUAAUUCUCUGAAAAGCGCUGGUCUAGCUGGCUCAGCAACAGAGGAUUGAGCAUCA
B12: chr3:148802587:148802588:-_ENSG00000071794_ENST00000310053|hu_mus|hu_hu_hu_mus_False|58_68 (ssRNA)
RNA: GGGAGUUCUACAGUCCGACGAUCUCCAACAACUUGUCCUCUCAUAGUUCCAAAUAAAACCAAAUCUACUUCUUCAUCACUAGUUAGGAAGUCAUCUGGAGGAAUAAUGUCUUGGAAUUCAAAAUGUGGCAAGAAAGUUGAGUACAACAGAGGAUUGAGCAUCA
B13: chr14:55818557:55818558:+_ENSG00000178974_ENST00000313833|hu_mus|FALSE|FALSE (ssRNA)
RNA: GGGAGUUCUACAGUCCGACGAUCUGCUGGGUGUUCCCUCAGCUGGGGGUGCGCUUGCUGGUCCUGUCCAGAUGACAGAAAGAAGAGCAUCCCGGGAAGAGGCUCCUCAAGGGAGUCUAAAGCCGCCGGCCGGUCUUUCUCUACCAACAGAGGAUUGAGCAUCA
B14: chr4:115894766:115894767:+_ENSMUSG00000028698_ENSMUST00000030464|mus_hu|mus_mus_mus_hu_True|38_108 (ssRNA)
RNA: GGGAGUUCUACAGUCCGACGAUCUUCACACGGAAAUUGUACUUCGGGUUUUCCAACGGCCAGUACCAGUCCGGCCAAACUACCCGAACAGGGUCCUGUCCUCCUCUCCUACAGAACACAACAAAAUGCCCCCGAACUUUCAAGCAACAGAGGAUUGAGCAUCA
B15: chr5:128440902:128440903:+_ENSG00000066583_ENST00000173527|hu_mus|hu_hu_hu_mus_True|8_48 (ssRNA)
RNA: GGGAGUUCUACAGUCCGACGAUCUUGAACGGUGCUGCCAAGUCCUUUGGGGUAUUGUUCCGUUAUGAUAACUGGAAUCCCUAAGAUCCGGGCCCCUUGCAACAGUCUCUGUCCCACACUAAUGAUGUCCCCAAAAUAUUUGAUCAACAGAGGAUUGAGCAUCA
B16: chr1:39494447:39494448:+_ENSG00000168653_ENST00000372967|hu_mus|hu_hu_hu_mus_False|28_98 (ssRNA)
RNA: GGGAGUUCUACAGUCCGACGAUCGCACCGAGCGGCGAUCUUGUAGGGCUGUUCUGCGCUUAGGAACAUAAAGUGCCGGUCCAGGCUGAUGCCCAGCUUUUUCUGUAUGUCCAAGAAAGGCAUGGCUCUGCAGUGCCCUUGUCACAACAGAGGAUUGAGCAUCA
B17: chr12:93870747:93870748:+_ENSG00000198015_ENST00000552217|hu_hu|FALSE|FALSE (ssRNA)
RNA: GGGAGUUCUACAGUCCGACGAUCCUCUACGUUGCAAUUAUAGUCAUCUGGUAGAGGAGAAUACGUAGAUUUAUGACAAACACAAUAUAAAGCUCCAUUUUGGACUGGAAAUAAAUGUUUCAAGAUAGUUCUCUUUGACAUCACCAACAGAGGAUUGAGCAUCA
B18: chr13:100200933:100200934:-_ENSMUSG00000052727_ENSMUST00000064762|mus_mus|FALSE|FALSE (ssRNA)
RNA: GGGAGUUCUACAGUCCGACGAUCAGACGCAAGUGAGGCAUAUAAGGACAUCUCUCUGGGAGGAACAACAUCAGAGAGAGUGUCUUCCUGAAGAGGAGAGGCUAUCUGAGAAGGGGUGUGAGCUGAAGAGGUGGACGGGGAAGCCAACAGAGGAUUGAGCAUCA
B19: chr7:131071926:131071927:+_ENSG00000128585_ENST00000352689|hu_mus|FALSE|FALSE (ssRNA)
RNA: GGGAGUUCUACAGUCCGACGAUCUUUCUUCAAAUUGCAGACAUGAGUUUUCUCAUAUUUUCCAAAUGUAAUAUUCUGAACGAUAGCAGGCCUUUCAAGCUUCAGAAUCAAGUAUUGGGGAGGAUAGUUGCUCUCUGAAGACCACAACAGAGGAUUGAGCAUCA
B20: 51246821_51246941_3074_3pUTR_ENSMUSG00000021395_ENSMUST00000095797|mouse|control|control (ssRNA)
RNA: GGGAGUUCUACAGUCCGACGAUCCAACAUUCAGAUACCAGAACAAUGCAAGCAAUGCAUGCAGAUCUGAACUGUGAGCCUAAGGGAAGUCCAAGGUGGCAGGCCCAGGAGUCUGUCACCAUUAAGGGUGGUGGAAGCCACCAACAACAGAGGAUUGAGCAUCA
B21: chr4:115894766:115894767:+_ENSMUSG00000028698_ENSMUST00000030464|mus_hu|mus_mus_mus_hu_True|8_48 (ssRNA)
RNA: GGGAGUUCUACAGUCCGACGAUCUUCCACACGGAAAUGUACUUCGGGUUUUCCAACGGCCAGUACCAGUCCGGCCAAACUACCCGAUGAGGACAAGCCCCCUCUCUCCUACAGAACACAACAAAAUAACAAAAUACUUUCAAGCAACAGAGGAUUGAGCAUCA
B22: chr7:141438946:141438947:+_ENSG00000106028_ENST00000265304|hu_mus|hu_hu_hu_mus_True|1_88 (ssRNA)
RNA: GGGAGUUCUACAGUCCGACGAUCGACGAAAUACCUGUAACACAGGUGAAACAUGGCUGGCUUCUGUUUUUCUUACAACCUAAUCUUUAGGCUUUUCCUAAAGGAAAGAAAGAAAAGAGAAAAAUGAUAAAUCAAGAACUUCCGCAACAGAGGAUUGAGCAUCA

These binders were tested against T1, UNK ZnF1-3 (human, UniProt Q9C0B0 31-174) (assay: nsRBNS (natural sequence RNA bind-n-seq); RBNS binding buffer (assumed for nsRBNS): 25 mM Tris pH 7.5, 150 mM KCl, 3 mM MgCl2, 0.01% Triton X-100, 500 ug/ml BSA, 20 U/ml SUPERase-In, 4 C; UNK is unkempt and MSI1 is Musashi-1; names of the RNAs are library labels; protein concentration not given here; high values mean tight binding).
T1 sequence: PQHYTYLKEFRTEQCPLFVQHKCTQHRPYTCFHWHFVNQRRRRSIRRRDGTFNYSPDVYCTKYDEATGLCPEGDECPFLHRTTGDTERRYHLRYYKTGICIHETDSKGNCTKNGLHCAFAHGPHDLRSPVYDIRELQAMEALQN
B1 showed a binding signal of 1.72 enrichment R. With B2 the binding signal was 0.965 enrichment R. Work on B3 yielded a binding signal of 1.89 enrichment R. With B4 the binding signal was 2.99 enrichment R. For B5, the binding signal was 0.941 enrichment R. In the case of B6, the binding signal is reported as 1.62 enrichment R. B7 showed a binding signal of 0.869 enrichment R. For B8, the binding signal was 0.93 enrichment R. For B9, the binding signal was 0.73 enrichment R. In the case of B10, the binding signal is reported as 2.72 enrichment R. B11 showed a binding signal of 1.27 enrichment R. B12 gave a binding signal of 1.21 enrichment R. B13 showed a binding signal of 0.902 enrichment R. In the case of B14, the binding signal is reported as 0.821 enrichment R. With B15 the binding signal was 0.878 enrichment R. B16 showed a binding signal of 0.573 enrichment R. B17 gave a binding signal of 0.837 enrichment R. B18 showed a binding signal of 2.79 enrichment R. With B19 the binding signal was 1.15 enrichment R. Binder B20 has a binding signal of 0.813 enrichment R. Binder B21 has a binding signal of 0.89 enrichment R. In the case of B22, the binding signal is reported as 1 enrichment R.
